Source: the supplement of paper PMC4967469
IC50 is the fitted dose that halves viability relative to control wells, and lower means more sensitive; fits outside the tested doses are given as limits. AUC sums up the same curve from the lowest dose to the 256-fold higher top dose; values near 1 show little effect. For part of these data: Any top dose called inferred is not printed in the source and was worked back from the curve model. For part of these data: An entry number marks a drug with two screens in the source, which often give different values.

Experiments:
Experiment in all cases: Viability of human cancer cell lines after 72 h of drug (GDSC screen)
OSI-906 = compound: C[C@]1(O)C[C@@H](c2nc(-c3ccc4ccc(-c5ccccc5)nc4c3)c3c(N)nccn32)C1 [OSI-906]; conditions: top dose 2.56 µM; top dose inferred
Description: (§1)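 Human cancer cell lines in 384-well plates, medium with 10% serum, drug for 72 h over a 256-fold dose range (nine 2-fold or five 4-fold steps up to the top dose). Adherent lines were fixed and stained with the nucleic acid dye Syto60, suspension lines read with resazurin; signal relative to control wells, capped at 0 and 100%. One two-parameter sigmoid per drug and line, fitted in a mixed model over all curves with the slope shared within a line.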

YM155 = compound: COCC[n+]1c2c(n(Cc3cnccn3)c1C)C(=O)c1ccccc1C2=O [YM155]; conditions: top dose 5.12 µM
Description: as §1

JNJ-26854165 = compound: c1ccc2c(CCNc3ccc(Nc4ccncc4)cc3)c[nH]c2c1 [JNJ-26854165]; conditions: top dose 10 µM
Description: as §1

FTI-277 = compound: COC(=O)[C@H](CCSC)NC(=O)c1ccc(NC[C@@H](N)CS)cc1-c1ccccc1 [FTI-277]; conditions: top dose 1.024 µM; top dose inferred
Description: as §1

JNK Inhibitor VIII = compound: CCOc1nc(NC(=O)Cc2cc(OC)ccc2OC)cc(N)c1C#N [JNK Inhibitor VIII]; conditions: top dose 10 µM; top dose inferred
Description: as §1

NSC-207895 = compound: CN1CCN(c2ccc([N+](=O)[O-])c3no[n+]([O-])c23)CC1 [NSC-207895]; conditions: top dose 20 µM; top dose inferred
Description: as §1

SB-715992 = compound: Cc1ccc(C(=O)N(CCCN)[C@@H](c2nc3cc(Cl)ccc3c(=O)n2Cc2ccccc2)C(C)C)cc1 [SB-715992]; conditions: top dose 0.128 µM; top dose inferred
Description: as §1

Docetaxel = compound: CC(=O)O[C@@]12CO[C@@H]1C[C@H](O)[C@@]1(C)C(=O)[C@H](O)C3=C(C)[C@@H](OC(=O)[C@H](O)[C@@H](NC(=O)OC(C)(C)C)c4ccccc4)C[C@@](O)([C@@H](OC(=O)c4ccccc4)[C@H]21)C3(C)C [Docetaxel]; conditions: top dose 0.0125 µM
Description: as §1

JQ1 = compound: Cc1sc2c(c1C)C(c1ccc(Cl)cc1)=N[C@@H](CC(=O)OC(C)(C)C)c1nnc(C)n1-2 [JQ1]
Description: as §1

Belinostat = compound: O=C(/C=C/c1cccc(S(=O)(=O)Nc2ccccc2)c1)NO [Belinostat]; conditions: top dose 20 µM; top dose inferred
Description: as §1

AMG-706 = compound: CC1(C)CNc2cc(NC(=O)c3cccnc3NCc3ccncc3)ccc21 [AMG-706]; conditions: top dose 2 µM; top dose inferred
Description: as §1

[1] = top dose 1 µM, screen: GDSC drug entry 1218, top dose inferred
[2] = top dose 2.56 µM, screen: GDSC drug entry 163

Cell Line | AUC (OSI-906) | IC50 (OSI-906) [nM] | AUC (YM155) | IC50 (YM155) [nM] | AUC (JNJ-26854165) | IC50 (JNJ-26854165) [nM] | AUC (FTI-277) | IC50 (FTI-277) [nM] | AUC (JNK Inhibitor VIII) | IC50 (JNK Inhibitor VIII) [nM] | AUC (NSC-207895) | IC50 (NSC-207895) [nM] | AUC (SB-715992) | IC50 (SB-715992) [nM] | AUC (Docetaxel) | IC50 (Docetaxel) [nM] | AUC (JQ1; [1]) | IC50 (JQ1; [1]) [nM] | AUC (JQ1; [2]) | IC50 (JQ1; [2]) [nM] | AUC (Belinostat) | IC50 (Belinostat) [nM] | AUC (AMG-706) | IC50 (AMG-706) [nM]
FTC-133 (thyroid, adherent) | 0.955 | > 2560 | 0.04 | < 20 | 0.821 | 6530 | 0.843 | 836 | 0.964 | > 10000 | 0.88 | > 20000 | 0.983 | > 128 | 0.439 | 0.522 | 0.973 | > 1000 | 0.908 | > 2560 | 0.667 | 3840 | 0.954 | > 2000
G-361 (melanoma, adherent) | 0.967 | > 2560 | 0.085 | < 20 | 0.847 | 6890 | 0.988 | > 1020 | 0.988 | > 10000 | 0.874 | 18100 | 0.869 | 110 | 0.809 | 6.21 | 0.987 | > 1000 | 0.504 | 164 | 0.32 | 401 | 0.984 | > 2000
G-401 (kidney, adherent) | 0.526 | 189 | 0.03 | < 20 | 0.857 | 9420 | 0.938 | > 1020 | 0.982 | > 10000 | 0.539 | 1610 | 0.803 | 71.2 | 0.601 | 1.53 | 0.977 | > 1000 | 0.872 | > 2560 | 0.46 | 960 | 0.98 | > 2000
G-402 (soft tissue, adherent) | 0.958 | > 2560 | 0.141 | < 20 | 0.801 | 6890 | 0.937 | > 1020 | 0.978 | > 10000 | 0.916 | > 20000 | 0.976 | > 128 | 0.527 | 0.945 | 0.935 | > 1000 | 0.527 | 194 | 0.775 | 10700 | 0.793 | 1270
GMS-10 (glioma, adherent) | 0.972 | > 2560 | 0.233 | 54.3 | 0.908 | > 10000 | 0.976 | > 1020 | 0.982 | > 10000 | 0.988 | > 20000 | 0.987 | > 128 | 0.574 | 1.25 | 0.982 | > 1000 | 0.96 | > 2560 | 0.787 | 8600 | 0.985 | > 2000
H513 (mesothelioma, semi-adherent) | 0.983 | > 2560 | 0.851 | > 5120 | 0.971 | > 10000 | 0.95 | > 1020 | 0.982 | > 10000 | 0.985 | > 20000 | 0.976 | > 128 | 0.895 | > 12.5 | 0.973 | > 1000 | 0.964 | > 2560 | 0.956 | > 20000 | 0.986 | > 2000
H2369 (mesothelioma, adherent) | 0.953 | > 2560 | 0.154 | 26.1 | 0.862 | 9040 | 0.658 | 178 | 0.946 | > 10000 | 0.981 | > 20000 | 0.909 | > 128 | 0.679 | 2.52 | 0.985 | > 1000 | 0.771 | 1020 | 0.607 | 2480 | 0.935 | > 2000
H2373 (mesothelioma, adherent) | 0.827 | 2120 | 0.039 | < 20 | 0.911 | > 10000 | 0.963 | > 1020 | 0.967 | > 10000 | 0.916 | > 20000 | 0.983 | > 128 | 0.782 | 6.7 | 0.975 | > 1000 | 0.874 | > 2560 | 0.477 | 1070 | 0.905 | > 2000
H2461 (mesothelioma, adherent) | 0.943 | > 2560 | 0.464 | 248 | 0.954 | > 10000 | 0.979 | > 1020 | 0.981 | > 10000 | 0.969 | > 20000 | 0.982 | > 128 | 0.893 | > 12.5 | 0.978 | > 1000 | 0.808 | 1740 | 0.64 | 3370 | 0.981 | > 2000
H2595 (mesothelioma, adherent) | 0.956 | > 2560 | 0.048 | < 20 | 0.914 | > 10000 | 0.968 | > 1020 | 0.912 | > 10000 | 0.804 | 15100 | 0.826 | 123 | 0.769 | 6.64 | 0.963 | > 1000 | 0.761 | 1260 | 0.457 | 912 | 0.917 | > 2000
H2731 (mesothelioma, adherent) | 0.873 | > 2560 | 0.382 | 144 | 0.868 | > 10000 | 0.971 | > 1020 | 0.94 | > 10000 | 0.85 | 18700 | 0.972 | > 128 | 0.801 | 7.13 | 0.981 | > 1000 | 0.68 | 553 | 0.088 | < 78.1 | 0.917 | > 2000
